# Whole data set: some 33,000 sequences, median “E-score (-0.5 to 0.5)” near -0.041, cut for the highest 2% near 0.37. Some of the results follow.
# Target: T1, Ecm22 (UniProt Q05958)
# T1 sequence: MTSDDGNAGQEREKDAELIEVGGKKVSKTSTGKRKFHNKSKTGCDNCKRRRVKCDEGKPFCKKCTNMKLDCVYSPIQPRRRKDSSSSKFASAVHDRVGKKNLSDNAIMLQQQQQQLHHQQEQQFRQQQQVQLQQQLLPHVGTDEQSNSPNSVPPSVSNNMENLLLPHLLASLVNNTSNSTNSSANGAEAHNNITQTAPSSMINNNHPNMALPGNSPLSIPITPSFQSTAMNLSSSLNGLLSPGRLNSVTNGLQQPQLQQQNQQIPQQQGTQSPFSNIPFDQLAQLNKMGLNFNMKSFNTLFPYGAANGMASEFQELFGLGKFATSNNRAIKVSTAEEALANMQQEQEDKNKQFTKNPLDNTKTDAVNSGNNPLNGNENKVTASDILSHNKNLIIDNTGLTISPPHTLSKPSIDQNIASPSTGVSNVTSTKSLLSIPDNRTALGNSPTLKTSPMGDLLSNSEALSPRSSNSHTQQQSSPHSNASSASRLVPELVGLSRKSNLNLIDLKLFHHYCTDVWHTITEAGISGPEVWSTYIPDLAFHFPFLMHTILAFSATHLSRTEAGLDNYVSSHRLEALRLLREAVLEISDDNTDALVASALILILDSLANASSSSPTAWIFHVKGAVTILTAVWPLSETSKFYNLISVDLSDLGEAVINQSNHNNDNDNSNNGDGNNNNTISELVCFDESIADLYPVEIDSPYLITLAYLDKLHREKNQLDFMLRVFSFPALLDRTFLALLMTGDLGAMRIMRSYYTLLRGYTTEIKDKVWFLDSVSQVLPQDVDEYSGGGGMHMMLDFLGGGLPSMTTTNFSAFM
# Assay: PBM E-score (8-mer binding enrichment) (E-score (-0.5 to 0.5)); higher = stronger / more preferred TF binding; most listed sequences are background and not binding sites
# Details: protein concentration: 200 nM; construct: GST-full length
# How it was run: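 GST-tagged yeast TFs (full-length or DNA-binding domain) were made by PURExpress in vitro transcription/translation and applied at about 100-200 nM to universal all-10-mer Agilent arrays. The arrays were made double-stranded by primer extension, on fresh or once-stripped slides. Bound protein was detected with fluorescent anti-GST, and scans were normalised with masliner. Each ungapped eight-base word, pooled with its reverse complement, received an E-score (modified Wilcoxon-Mann-Whitney statistic) from the Universal PBM Analysis Suite.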
row,Sequence,PBM E-score
1,TAATTTCA,0.127
2,CCAGTAAA,-0.0419
3,TCATCCCA,-0.00546
4,AGTATTCA,-0.0316
5,GACTCTAA,-0.21
6,CCGGATAG,0.0828
7,ACCAAAAG,-0.178
8,GGGGCATA,-0.152
9,AATGCAGC,-0.147
10,GTAGGCAC,-0.144
11,CTACACAG,-0.186
12,CAAGTCGG,0.0293
13,ACTTTCGG,-0.184
14,AACGATTC,0.377
15,AATTTGGA,-0.116
16,ACCCTTCG,0.126
17,ACTTCAAA,-0.0226
18,CAAAGTAA,0.0174
19,ACCAATGC,0.0524
20,CCATCCGG,-0.161
21,CCGGAAAA,0.147
22,AGAATTGG,-0.0535
23,CGATATAA,0.138
24,GCAGTCAC,-0.0863
25,ACCACCTG,-0.0881

row,Sequence,PBM E-score
1,GTGACTCA,-0.0904
2,ACGCGCAA,0.172
3,CAAACCGC,-0.181
4,ACAGATTG,-0.157
5,GATAAAGA,-0.019
6,AATTGTTG,-0.172
7,CACTCATA,0.104
8,CGATGCCA,0.0118
9,AAGGGCTC,-0.16
10,AAAGAAGG,-0.146
11,AGCATTTG,-0.206
12,ATAATGTC,0.0705
13,AGTACAGG,-0.0421
14,GCGAAAGC,0.0552
15,CGGCTGGC,0.0664
16,CCGTAACA,0.2
17,ATGCACAT,0.0594
18,ACTTCCAA,-0.156
19,ACACGACG,0.251
20,ATTTGTCA,0.147
21,ATGTAAGA,0.0701
22,AACTATGT,-0.209
23,ACTAGAAT,0.0764
24,AATCAAGT,-0.084
25,ACCAGGGA,-0.174

row,Sequence,PBM E-score
1,CCGGGGAG,-0.164
2,CGTACGAA,0.448
3,ATCCCCTC,-0.0572
4,AACTGCCT,-0.0616
5,CTTGTTAA,-0.171
6,AAACTGTC,-0.0481
7,CGGGGTGC,-0.0331
8,CCTGCTTA,0.0143
9,GAAGAAGA,-0.0416
10,CTGCTGTA,0.132
11,GAGATGTA,0.0854
12,AAACTGCT,-0.182
13,AAGCTCCG,-0.12
14,AGCGAAGA,0.183
15,TCGTCAAA,0.216
16,CCCGTTAC,0.139
17,AAACACAG,-0.119
18,CTACGGTA,0.0823
19,ACGAACTA,0.326
20,CTCTTCAA,-0.151
21,GATTTTCC,-0.148
22,AAACTGAC,0.00573
23,GTACTGTA,0.196
24,ATGGCGAC,-0.165
25,TCGGTCCA,0.219

row,Sequence,PBM E-score
1,ACTAATAG,-0.106
2,CCGCATTA,0.12
3,ATACCCTC,0.032
4,CTTTGTGC,-0.0392
5,TCCACTCA,-0.126
6,AGTTATGA,-0.112
7,ATCGAGTA,0.0689
8,GTTGAGGA,0.0743
9,GTGTGCGA,0.161
10,CGGTCGAC,0.1
11,AAAATAAA,0.0716
12,ATTCAAAA,-0.0309
13,CGGTTGTA,-0.00021
14,TGATGCCA,0.00385
15,CGGCGAAC,0.0771
16,AGAGTGAT,-0.0259
17,CTTTAACA,-0.151
18,GTTAATTA,0.216
19,CTACTTTC,-0.0465
20,ATGTTCTC,0.00702
21,ATGTCAGC,-0.00063
22,ACGGTTCT,0.0479
23,AGCCGGGA,-0.105
24,AACGGACG,0.211
25,CGCGGCGA,0.017

row,Sequence,PBM E-score
1,TCTGAACA,0.0272
2,CCAATAGG,-0.157
3,ATGGTCTA,-0.229
4,CTATTAGA,-0.0902
5,GAAACGTC,-0.0173
6,ACTAGTCA,-0.197
7,CTCGCATA,0.376
8,AAGGGTTG,0.0554
9,AAATATCA,0.0345
10,AAGTTACC,0.0251
11,CTACGAAC,0.369
12,CCGGCCCA,-0.257
13,CCCGATAC,0.16
14,GTGCCAAA,-0.0616
15,ATACAGAT,-0.0539
16,AGCGCCCG,0.0524
17,ACACCGTC,0.0816
18,CTTGGGAA,-0.0525
19,CACGGCCC,-0.156
20,CTAGTAGA,-0.00792
21,AATAGAAC,-0.0269
22,CCGCGCCA,-0.3
23,CAGTTGAC,-0.0743
24,GCGTTGAA,0.218
25,ATTTTCGA,-0.0346

row,Sequence,PBM E-score
1,GATGTCCC,0.0176
2,GTGGTCTA,-0.146
3,GCCTTAGC,-0.299
4,GTCAGGAC,-0.208
5,AACTAGAA,0.0154
6,CCTAACCC,-0.132
7,ACGATGCT,0.283
8,GCAGGCCC,-0.191
9,CTTCAACC,-0.187
10,CCCATTCC,-0.0966
11,ATATGGAC,-0.0698
12,AAACTCCC,-0.0659
13,AAGATTAG,-0.0338
14,GCCCTGAA,-0.0693
15,TGAACTCA,0.0345
16,CCTAAAGC,-0.156
17,AATCGCTA,0.0741
18,ACCCAACG,-0.0334
19,GGGAGTAC,-0.0395
20,ATCCATAC,0.0926
21,GGGTAGAA,-0.096
22,ATGAAATA,0.0173
23,ATCTACTA,-0.0724
24,AGTCTCAG,-0.321
25,ATGTTAAC,-0.0227

row,Sequence,PBM E-score
1,AAGCCATG,-0.173
2,ACTGTTTA,0.025
3,AACCCACC,-0.078
4,CACTCAGG,-0.106
5,AACATAAG,0.00326
6,GACACCGA,-0.0898
7,AGCAGCTA,-0.106
8,CCAATCGA,-0.00328
9,GATACTTA,-0.131
10,CGAATCTA,0.036
11,GATCCCCA,-0.0245
12,TGGCAGAA,0.0114
13,CCCTGTTC,-0.187
14,CAACTGGG,-0.248
15,ATCTCGCG,0.23
16,GAGCACAC,-0.254
17,CTTCCAAG,-0.151
18,GTTGCATA,0.127
19,AGGCATGG,-0.217
20,ACCCATAA,0.00567
21,GCTGCCCC,-0.134
22,CAGTTAAC,-0.00325

# From the supplement of paper PMC3334620
